Measurements taken from the RNAGym collection of RNA variant scans (doi:10.7554/elife.90254).
Read counts are not given, so values of variants with three or more changes are uncertain.

B1: LINE1-full (parent)
chain: UACGUAGGUGGUUUUCCCCUGAUAGUGCUAAGGGGGCCUGGAAGUUUGGACUGGGCAGAGCUCAACACAGCGUGGCAAAGUGGCUGUGGCUAGACUGCCUCUCUGGAUUCCUCGUCACUCAGCAGGGCAUCUCUGAGAGAAAUGCC

Variants of: B1
Assay: self-cleavage, relative activity (ratio to wild type); higher = more cleavage; in vitro, sequencing; the parent is a self-cleaving ribozyme
In the case of UACGUAGGUGGUUUUCCCCUGAUAGUGCUAAGGGGGCCUGGAAGUUUGGACUGGGCAGAGCUCAACACAGCGUGGCAAAGUGGCUGUGGCUAGACUGCCUCUCUGGGUUCCUCGUCACUCAGCUGGGCAUCUCCGAGAGAAAUGCC [A107G A124U U134C], the self-cleavage is reported as 1.1.
UACGUAGGUGGUUUUCCCCUGAUAGUGCUAAGGGGGCCUGGAAGUUUGGACUGGGCAGAGCUCAACACAGCGUGGCAAAGUGGCUGUGGCUAGACUGCCUCUCAGGAUUCCUCGUCACUCAGCAGGGCAUCUCUGGGAGAAUUGCC [U104A A136G A142U] gave a self-cleavage of 2.02.
UACGUAGGUGGUUUUCCCCUGAUAGUGCUAAGGGGGCCUGGAAGUUUGGACUGGGCAGAGCUCAACACAGCGUGGCAAAGUGGCUGUGGCUAGACUGCCUCUCGGGAUUCCUCGUCACCCAGCAGGGCAUCUCUGAGAGAGAUGCC [U104G U119C A141G] showed a self-cleavage of 1.93.
UACGUAGGUGGUUUUCCCCUGAUAGUGCUAAGGGGGCCUGGAAGUUUGGACUGGGCAGAGCUCAACACAGCGUGGCAAAGUGGCUGUGGCUAGACUGCCUCUCCGGAUUCCUCGUCACCCAGCAGGGCAUCUCUGUGAGAAAUGCC [U104C U119C A136U] gave a self-cleavage of 1.06.
For UACGUAGGUGGUUUUCCCCUGAUAGUGCUAAGGGGGCCUGGAAGUUUGGACUGGGCAGAGCUCAACACAGCGUGGCAAAGUGGCUGUGGCUAGACUGCCUCCCUGGAUUCCUCGUCACUCAGCAGGGCAUCCCUGGGAGAAAUGCC [U102C U132C A136G], the self-cleavage was 0.
In the case of UACGUAGGUGGUUUUCCCCUGAUAGUGCUAAGGGGGCCUGGAAGUUUGGACUGGGCAGAGCUCAACACAGCGUGGCAAAGUGGCUGUGGCUAGACUGCCUCCCUGGAAUCCUCGCCACUCAGCAGGGCAUCUCUGAGAGAAAUGCC [U102C U108A U115C], the self-cleavage is reported as 0.
For UACGUAGGUGGUUUUCCCCUGAUAGUGCUAAGGGGGCCUGGAAGUUUGGACUGGGCAGAGCUCAACACAGCGUGGCAAAGUGGCUGUGGCUAGACUGCCUCUAUGGAUUCCUCGCCACUCAGCAGGGCAUCUCUGAGAGAAACGCC [C103A U115C U143C], the self-cleavage was 1.66.
Variant UACGUAGGUGGUUUUCCCCUGAUAGUGCUAAGGGGGCCUGGAAGUUUGGACUGGGCAGAGCUCAACACAGCGUGGCAAAGUGGCUGUGGCUAGACUGCCUCUCUGGGUUCCUCGUCACUCAGCAGGGCAUCUCUGAGGGAGAUGCC [A107G A138G A141G] has a self-cleavage of 1.1.
Work on UACGUAGGUGGUUUUCCCCUGAUAGUGCUAAGGGGGCCUGGAAGUUUGGACUGGGCAGAGCUCAACACAGCGUGGCAAAGUGGCUGUGGCUAGACUGCCUCCCUGGAUUCCUCGUCACUCAGCAGGGCACCUCCGAGAGAAAUGCC [U102C U130C U134C] yielded a self-cleavage of 2.3.
With UACGUAGGUGGUUUUCCCCUGAUAGUGCUAAGGGGGCCUGGAAGUUUGGACUGGGCAGAGCUCAACACAGCGUGGCAAAGUGGCUGUGGCUAGACUGCCUCUCUGGGUUCCUCGUCACUCAGUAGGGCAUCCCUGAGAGAAAUGCC [A107G C123U U132C] the self-cleavage was 1.02.
For UACGUAGGUGGUUUUCCCCUGAUAGUGCUAAGGGGGCCUGGAAGUUUGGACUGGGCAGAGCUCAACACAGCGUGGCAAAGUGGCUGUGGCUAGACUGCCUCUCCGGAUUCCUCGUCACUCAGCAGGACAUCUCUGGGAGAAAUGCC [U104C G127A A136G], the self-cleavage was 0.39.
For UACGUAGGUGGUUUUCCCCUGAUAGUGCUAAGGGGGCCUGGAAGUUUGGACUGGGCAGAGCUCAACACAGCGUGGCAAAGUGGCUGUGGCUAGACUGCCUCUCUAGAUUCCUCGACACUCAGCAGGGCAUCUCUGAGGGAAAUGCC [G105A U115A A138G], the self-cleavage was 1.36.
UACGUAGGUGGUUUUCCCCUGAUAGUGCUAAGGGGGCCUGGAAGUUUGGACUGGGCAGAGCUCAACACAGCGUGGCAAAGUGGCUGUGGCUAGACUGCCUCUCUGGGUUCCUCGUCUCUCAGCAGGGCAUCUCUGAGAGAAACGCC [A107G A117U U143C] gave a self-cleavage of 1.32.
For UACGUAGGUGGUUUUCCCCUGAUAGUGCUAAGGGGGCCUGGAAGUUUGGACUGGGCAGAGCUCAACACAGCGUGGCAAAGUGGCUGUGGCUAGACUGCCUCUCUGGGUUCCUCGUCACUCAGCAGGGCAUCUCCGAGAGGAAUGCC [A107G U134C A140G], the self-cleavage was 2.95.
For UACGUAGGUGGUUUUCCCCUGAUAGUGCUAAGGGGGCCUGGAAGUUUGGACUGGGCAGAGCUCAACACAGCGUGGCAAAGUGGCUGUGGCUAGACUGCCUCCAUGGAUUCCUCGUCACUCAGCAGGGCAUCUCUGAGAGAAAAGCC [U102C C103A U143A], the self-cleavage was 1.89.
UACGUAGGUGGUUUUCCCCUGAUAGUGCUAAGGGGGCCUGGAAGUUUGGACUGGGCAGAGCUCAACACAGCGUGGCAAAGUGGCUGUGGCUAGACUGCCUCUCAGGAUUCCUCGUCACUCAGCAGGGCGCCUCUGAGAGAAAUGCC [U104A A129G U130C] gave a self-cleavage of 1.61.
Variant UACGUAGGUGGUUUUCCCCUGAUAGUGCUAAGGGGGCCUGGAAGUUUGGACUGGGCAGAGCUCAACACAGCGUGGCAAAGUGGCUGUGGCUAGACUGCCUCUCUGGGAUCCUCGUCACCCAGCAGGGCAUCCCUGAGAGAAAUGCC [A107G U108A U119C U132C] has a self-cleavage of 1.14.
For UACGUAGGUGGUUUUCCCCUGAUAGUGCUAAGGGGGCCUGGAAGUUUGGACUGGGCAGAGCUCAACACAGCGUGGCAAAGUGGCUGUGGCUAGACUGCCUCUCUAGAUUCCACGUCACCCAGCAGGGCAUCUCUGAGAGAAAUGCC [G105A U112A U119C], the self-cleavage was 1.12.
Work on UACGUAGGUGGUUUUCCCCUGAUAGUGCUAAGGGGGCCUGGAAGUUUGGACUGGGCAGAGCUCAACACAGCGUGGCAAAGUGGCUGUGGCUAGACUGCCUCUCCGGAUUCCUCGUCACUCAGCGGGGCAUCUCAGAGAGAAACGCC [U104C A124G U134A U143C] yielded a self-cleavage of 0.44.
In the case of UACGUAGGUGGUUUUCCCCUGAUAGUGCUAAGGGGGCCUGGAAGUUUGGACUGGGCAGAGCUCAACACAGCGUGGCAAAGUGGCUGUGGCUAGACUGCCUCCUUGGAUUCCUCGUCGCUCAGCAGGGCAUCUCUGAGAGAAAUGCC [U102C C103U A117G], the self-cleavage is reported as 1.65.
For UACGUAGGUGGUUUUCCCCUGAUAGUGCUAAGGGGGCCUGGAAGUUUGGACUGGGCAGAGCUCAACACAGCGUGGCAAAGUGGCUGUGGCUAGACUGCCUCUCCGGAUUCCCCGUCACUCAGCAGGGCAUCUCUGAGAGAGAUGCC [U104C U112C A141G], the self-cleavage was 1.15.
Variant UACGUAGGUGGUUUUCCCCUGAUAGUGCUAAGGGGGCCUGGAAGUUUGGACUGGGCAGAGCUCAACACAGCGUGGCAAAGUGGCUGUGGCUAGACUGCCUCUCAGGAUUCCACGUCACUCUGCUGGGCAUCUCUGAGAGAAAUGCC [U104A U112A A121U A124U] has a self-cleavage of 0.82.
Variant UACGUAGGUGGUUUUCCCCUGAUAGUGCUAAGGGGGCCUGGAAGUUUGGACUGGGCAGAGCUCAACACAGCGUGGCAAAGUGGCUGUGGCUAGACUGCCUCUCUGGGCUCCUCGUCACUCAGCAGGGCAUCUCCGAGAGAAAUGCC [A107G U108C U134C] has a self-cleavage of 1.84.
For UACGUAGGUGGUUUUCCCCUGAUAGUGCUAAGGGGGCCUGGAAGUUUGGACUGGGCAGAGCUCAACACAGCGUGGCAAAGUGGCUGUGGCUAGACUGCCUCUCCGGGUUCCUCGUCACUCAGCAGGGCAUCUCUGAGAUAAAUGCC [U104C A107G G139U], the self-cleavage was 1.1.
Work on UACGUAGGUGGUUUUCCCCUGAUAGUGCUAAGGGGGCCUGGAAGUUUGGACUGGGCAGAGCUCAACACAGCGUGGCAAAGUGGCUGUGGCUAGACUGCCUCUCCGGGUUCCUCGUCACUCAGCUGGGCAUCUCUGAGAGAAAUGCC [U104C A107G A124U] yielded a self-cleavage of 2.55.
Variant UACGUAGGUGGUUUUCCCCUGAUAGUGCUAAGGGGGCCUGGAAGUUUGGACUGGGCAGAGCUCAACACAGCGUGGCAAAGUGGCUGUGGCUAGACUGCCUCGCUGGACUCCUCGUCACUCAGCAGGGCAUCUCUGAGGGAAAUGCC [U102G U108C A138G] has a self-cleavage of 0.
With UACGUAGGUGGUUUUCCCCUGAUAGUGCUAAGGGGGCCUGGAAGUUUGGACUGGGCAGAGCUCAACACAGCGUGGCAAAGUGGCUGUGGCUAGACUGCCUCUCAGGAUUCCUCGUCACUCAGCGGGGCAUCUCUGAGGGAAAUGCC [U104A A124G A138G] the self-cleavage was 0.94.
Variant UACGUAGGUGGUUUUCCCCUGAUAGUGCUAAGGGGGCCUGGAAGUUUGGACUGGGCAGAGCUCAACACAGCGUGGCAAAGUGGCUGUGGCUAGACUGCCUCCCUGGAUUCCUCGUCACUCAGCAGGGCAUCUCCGAGCGAAAUGCC [U102C U134C A138C] has a self-cleavage of 1.53.
In the case of UACGUAGGUGGUUUUCCCCUGAUAGUGCUAAGGGGGCCUGGAAGUUUGGACUGGGCAGAGCUCAACACAGCGUGGCAAAGUGGCUGUGGCUAGACUGCCUCUCUGGGUCCCUCGUCACUCAGCAGGGCAUCUCUGAGAGGAAUGCC [A107G U109C A140G], the self-cleavage is reported as 0.9.
In the case of UACGUAGGUGGUUUUCCCCUGAUAGUGCUAAGGGGGCCUGGAAGUUUGGACUGGGCAGAGCUCAACACAGCGUGGCAAAGUGGCUGUGGCUAGACUGCCUCUUUGGAUUCCUCGUCACUCUGCAGGGCAUCUCUGAGUGAAAUGCC [C103U A121U A138U], the self-cleavage is reported as 1.63.
UACGUAGGUGGUUUUCCCCUGAUAGUGCUAAGGGGGCCUGGAAGUUUGGACUGGGCAGAGCUCAACACAGCGUGGCAAAGUGGCUGUGGCUAGACUGCCUCUCAGGGUUCCUGGUCACUCAGCAGGGCAUCUCUGAGAGAAAUGCC [U104A A107G C113G] showed a self-cleavage of 1.15.
Work on UACGUAGGUGGUUUUCCCCUGAUAGUGCUAAGGGGGCCUGGAAGUUUGGACUGGGCAGAGCUCAACACAGCGUGGCAAAGUGGCUGUGGCUAGACUGCCUCUCUUGACUCCUCGCCACUCAGCAGGGCAUCUCUGAGAGAAAUGCC [G105U U108C U115C] yielded a self-cleavage of 2.04.
In the case of UACGUAGGUGGUUUUCCCCUGAUAGUGCUAAGGGGGCCUGGAAGUUUGGACUGGGCAGAGCUCAACACAGCGUGGCAAAGUGGCUGUGGCUAGACUGCCUCUCCGGAUUCCUCGUCACUCAGCAGGGCACCUCAGAGAGAAAUGCC [U104C U130C U134A], the self-cleavage is reported as 0.43.
Variant UACGUAGGUGGUUUUCCCCUGAUAGUGCUAAGGGGGCCUGGAAGUUUGGACUGGGCAGAGCUCAACACAGCGUGGCAAAGUGGCUGUGGCUAGACUGCCUCCCUGGAUUCCUCGCCACUCAGCAGGGCAUCACUGAGAGAAAUGCC [U102C U115C U132A] has a self-cleavage of 2.3.
Variant UACGUAGGUGGUUUUCCCCUGAUAGUGCUAAGGGGGCCUGGAAGUUUGGACUGGGCAGAGCUCAACACAGCGUGGCAAAGUGGCUGUGGCUAGACUGCCUCUCUUGAUUCCUCGUCGCUCAGCAGGGCAUCUCUGAGAGAAACGCC [G105U A117G U143C] has a self-cleavage of 1.87.
UACGUAGGUGGUUUUCCCCUGAUAGUGCUAAGGGGGCCUGGAAGUUUGGACUGGGCAGAGCUCAACACAGCGUGGCAAAGUGGCUGUGGCUAGACUGCCUCCCUGGAUUCCCCGUCACUCAGCAGGGCAUCUCUGAGAGUAAUGCC [U102C U112C A140U] gave a self-cleavage of 2.33.
UACGUAGGUGGUUUUCCCCUGAUAGUGCUAAGGGGGCCUGGAAGUUUGGACUGGGCAGAGCUCAACACAGCGUGGCAAAGUGGCUGUGGCUAGACUGCCUCUCCGGUUUCCUCGUCACUCAGCAGGGCAUCUCCGAGAGAGAUGCC [U104C A107U U134C A141G] gave a self-cleavage of 2.3.
In the case of UACGUAGGUGGUUUUCCCCUGAUAGUGCUAAGGGGGCCUGGAAGUUUGGACUGGGCAGAGCUCAACACAGCGUGGCAAAGUGGCUGUGGCUAGACUGCCUCCCUGGAUUCCUCGUCACUCAGCGGGGCAUCUCUGUGAGAAAUGCC [U102C A124G A136U], the self-cleavage is reported as 1.2.
In the case of UACGUAGGUGGUUUUCCCCUGAUAGUGCUAAGGGGGCCUGGAAGUUUGGACUGGGCAGAGCUCAACACAGCGUGGCAAAGUGGCUGUGGCUAGACUGCCUCUCUGGGUUCCUCGUCACUCAGCAGGGCAUCUCUGUGAGAAAGGCC [A107G A136U U143G], the self-cleavage is reported as 1.29.
